Experimental data published in the supplement of paper PMC3334620.
The full ranking holds about 33,000 sequences; the median of “E-score (-0.5 to 0.5)” is about -0.012, and the highest 2% start at about 0.27. This is one part of the list.

biological target: T1, Vhr1 (UniProt P40522); assay: PBM E-score (8-mer binding enrichment) (E-score (-0.5 to 0.5)); higher = stronger / more preferred TF binding; most listed sequences are background and not binding sites; conditions: protein concentration: 200 nM; construct: GST-full length
T1 sequence: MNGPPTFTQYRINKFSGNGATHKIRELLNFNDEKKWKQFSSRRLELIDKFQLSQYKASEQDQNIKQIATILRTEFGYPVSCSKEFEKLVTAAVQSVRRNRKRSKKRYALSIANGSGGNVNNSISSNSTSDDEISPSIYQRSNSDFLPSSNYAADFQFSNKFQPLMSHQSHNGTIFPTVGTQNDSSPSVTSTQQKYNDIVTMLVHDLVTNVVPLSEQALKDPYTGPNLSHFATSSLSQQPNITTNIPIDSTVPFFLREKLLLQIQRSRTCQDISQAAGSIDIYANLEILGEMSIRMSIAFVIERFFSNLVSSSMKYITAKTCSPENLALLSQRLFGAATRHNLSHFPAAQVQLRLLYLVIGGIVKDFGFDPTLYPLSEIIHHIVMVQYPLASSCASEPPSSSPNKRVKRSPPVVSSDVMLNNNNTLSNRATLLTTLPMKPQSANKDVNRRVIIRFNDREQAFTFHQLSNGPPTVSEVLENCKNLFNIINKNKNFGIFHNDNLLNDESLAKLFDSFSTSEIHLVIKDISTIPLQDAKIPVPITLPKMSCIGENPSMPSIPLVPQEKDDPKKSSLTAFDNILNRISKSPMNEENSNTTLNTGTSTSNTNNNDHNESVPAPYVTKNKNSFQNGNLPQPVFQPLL
Summary of the method: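 Masliner-normalised scans of fluorescent anti-GST signal were the basis for scoring. That signal came from GST-tagged yeast transcription factors applied at about 100-200 nM to double-stranded universal all-10-mer Agilent arrays on fresh or once-stripped slides. Each ungapped eight-base word, pooled with its reverse complement, received an E-score from the Universal PBM Analysis Suite.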

Sequence	PBM E-score
AATTGAAT	-0.237
CTACCACC	-0.0685
GTGACCCA	0.267
CGTGCACG	-0.154
ATCCGCGG	0.0552
AATAACGA	-0.0329
CGATACCC	-0.106
AGTGTTCG	-0.0146
AGACAGGC	0.0179
AAGGTCCT	-0.285
ATACACGA	0.152
AATCGAGT	0.0782
CATACATA	0.238
AAACGTAT	0.0453
ACTGGCAA	-0.262
ACCGTAAA	-0.047
AAATGTGG	0.0751
GCGCAAAA	0.0395
AGGCGGCC	-0.124
AGGTCGAC	0.134
ACTTGCAC	0.105
AGACCACC	-0.0784
AAGTTCAT	-0.0454
CACGTTGC	-0.183
AGGGAGTA	0.113

Sequence	PBM E-score
GGACCCCC	-0.356
GAGCGCGC	0.181
ACACTCCT	0.103
AATGATAA	0.106
AATTCCAC	0.00803
TATACGAA	-0.0271
GGCCAACC	-0.0564
GGCCAGAC	-0.136
GGATTAAA	-0.0356
GCGGTTGA	0.111
ATTTAGTA	0.224
TCTGGCCA	-0.192
ATGGGGCG	0.0437
ATCGACGC	0.0154
GCGATACC	-0.0158
CCTTAGCA	0.0478
AGAACTGA	-0.183
AAGTTCCT	-0.381
AGTACTAA	0.128
AAGACACG	0.00364
AGTCCGTC	0.0219
AGATTCCA	0.00955
ATGTTCAA	-0.144
CGTGGTTA	0.0993
CCGCCTTA	0.0044

Sequence	PBM E-score
CAGGTTGG	0.0923
ACAATGCA	0.137
CCGCACGG	-0.129
CGAAAGCC	-0.241
TATATGAA	0.164
GAGGTATA	0.113
ACGATGCA	-0.0037
ATAGTAGA	0.0694
ACTGTTGA	-0.0703
AGTATCTG	-0.168
CATCCAAG	0.0266
GCTAGTTA	0.00532
CCTTCAAG	-0.248
AGCACGAT	0.0348
AAGGGTAG	-0.0897
AGCGCGGA	0.159
CTTTGCCC	-0.173
ACGCACTA	0.116
CCCCTGAA	0.0845
ATGTATGG	0.0248
AGACCCCC	-0.325
ATCTATTA	-0.00749
ATTCTATG	0.252
AGGATATG	0.161
ATACCGAA	-0.0363

Sequence	PBM E-score
TGAACAAA	0.16
ATACGGGC	-0.145
CAGTCTGG	-0.111
GCAGAATA	-0.124
CAACTCAC	0.263
ACGAGCCC	0.124
GCTCGCAC	-0.081
AAGTCAAA	0.00983
AAGCACGG	-0.272
TGAGGACA	-0.0851
AAACATTA	-0.0598
CCGCTTAG	-0.0233
CCCACAGG	-0.11
CGGCCGGA	-0.0197
TCTAACCA	0.0405
CCTACAGC	-0.0679
GAGCTCGA	0.107
ATGCCCTC	-0.0196
CTACAGAA	0.0819
ATCATCGC	0.259
CCTTTGTC	-0.0631
CAGAAATA	-0.0398
AACGGCAC	-0.09
CTCCGAAG	-0.179
AATTTTTG	-0.189

Sequence	PBM E-score
AATCGTGG	0.214
CCCTCACG	0.0387
GCATGCCC	0.127
GGGTTGAC	0.152
AAAAGGAG	-0.278
AGACGACG	-0.0292
ATCCAGTA	0.102
CCCTTGTA	-0.174
TAGGCACA	-0.0995
GTGATTTA	0.321
TCCGGGAA	-0.0875
CAGAGATC	0.0592
AACTGAAA	-0.0534
CCCAAGAC	-0.0608
CTCTCGCA	-0.0103
CAGAGATG	0.0531
CATCTTCA	-0.0611
CCTGACTC	0.479
AGACCTTC	-0.206
GCCCATCA	0.0129
TCAATTGA	-0.0329
CCAGCGCG	0.189
CATCGGTC	0.133
GCAAGAAC	-0.172
GCGCCCGC	0.00897

Sequence	PBM E-score
GCGATCCC	-0.013
ACTGAGAT	-0.102
AACTAAAG	-0.13
AGGGAACA	-0.107
TACGCATA	-0.0141
CTTGTCGC	0.0617
TATCGAAA	0.0982
CAGGATTA	0.0727
GTATCAAC	0.152
CGAGCACC	0.0192
ACGACGAT	0.127
AAATATGG	0.0289
CTTGGGCC	-0.158
ATCAAGGG	0.0834
AGCAGTAC	0.138
ACCACGTC	-0.0231
CTCTCGTA	0.00128
GCACCCCC	-0.138
ACCGTGAT	0.13
ACCTGACG	-0.0943
ACCGGGTG	0.127
GGGGAACC	-0.0109
TGGTCACA	0.035
CTGACCAA	0.0537
AGCAACCT	0.0102

Sequence	PBM E-score
AACAGGTG	-0.101
CCAAATCG	-0.166
ACAATACC	0.144
GGGGTACA	-0.169
CCTCAGAC	-0.121
ACCACATC	0.276
ATGTTGAG	0.163
AACTTTGG	-0.112
GCAATTCC	-0.163
AAACAAGT	-0.143
CTGGGGCC	-0.203
GCAATGGA	-0.128
ACTACCGG	-0.0155
CTGCCTCA	-0.166
GATTAGCA	0.0898
TCGCAACA	0.0193
ATTGACCA	0.108
CGCTAATA	0.042
GTTAAACA	-0.0739
AGCCCCGC	-0.0719
AAGTGGCA	-0.149
GATGCCCC	-0.201
CATCTCGG	0.0902
ATATGACG	0.0183
ACCACAGA	0.148

Sequence	PBM E-score
AAATCGTC	-0.041
AGAGCCAG	-0.036
CACCATTA	0.231
ACTGCTTA	-0.0673
AGCCGCAT	0.0935
CTCTAGAC	-0.104
ACATACTA	0.0441
ATGAAAAG	-0.225
AACGCTTC	-0.0677
AACCACCA	0.189
CTAAAGAA	-0.196
ACCGCGGG	0.312
AAAGTAGG	-0.0386
AGAGGCTG	-0.116
GTTGACTA	0.261
ACATGTAA	0.0646
GCCTTGGA	-0.116
AACTCTCT	-0.115
ACTGCCCG	0.108
CTCAAACA	0.0326
TAGGCCCA	-0.317
ATATCTGC	0.104
ACGTCCCT	-0.165
ACGATAAA	-0.181
ATTGCACC	0.0429

Sequence	PBM E-score
CCTTGATA	-0.0757
ATATTAAT	0.233
ATCTAGCA	-0.0151
GGCGCTTA	-0.242
ACGACAAC	0.155
ATGTGAAC	-0.0413
AGCGCTTA	-0.0963
TAAATTAA	-0.114
TACTCCAA	0.0683
AACGAAGG	-0.252
TCTTCGCA	-0.0178
CTTCAGTC	-0.122
ACGTCAAC	0.0638
GATCGACA	-0.166
CCATTTGA	-0.172
CGTGCTAA	-0.201
AATCTTGT	0.106
GTCGCAGA	0.132
ACCCTCCC	0.307
AGTCTAGA	-0.164
TCCAAGGA	-0.143
GATCAGGC	-0.00147
ATTGAGTG	0.202
AAGATGGA	-0.074
GCTGCCCA	0.0908

Sequence	PBM E-score
AGCGTTGG	-0.0607
GCTAATCA	0.262
GCGCTGGA	0.168
TATTGCCA	0.0264
CGAAGTCA	0.203
ATTCGCTC	-0.0609
GAGCACTA	0.0167
ATCGCAAA	-0.164
TACAATCA	0.185
AAATGTAG	-0.018
ATTCGTAC	0.192
AAGAGATA	-0.188
ACAGCTCC	0.0267
GATGTTCC	0.0387
CGAGCTCG	0.307
GGCGTAGA	0.0231
CTAACACC	0.0542
AATTCGCA	0.0713
GGGCTCAA	-0.162
CAGAGGTA	-0.065
GGATCCAC	0.118
GATGCCGC	-0.0247
GACACTAC	0.161
CTAGAATA	0.0202
ATACTCGC	0.0952

Sequence	PBM E-score
GATCACGA	-0.00868
CGCGTAGC	-0.0272
CCCTACGG	-0.0881
CCGCGGAG	0.154
CAGACATA	0.14
CCTTCAGC	-0.11
GTCTTCAA	-0.121
ACTAGCGA	-0.0168
AAACGGCA	-0.0537
ATACATCA	0.21
GCACAAAA	0.025
CACCATCG	-0.0838
ACCCTCTC	-0.203
GTCCCTAA	-0.129
CTCGCAAA	-0.0973
GACTGTAC	0.132
AGCAGAGC	-0.0338
AGGACGTC	-0.114
ACAATGCC	0.00379
ATAAAGGG	-0.143
GCCTTGCA	-0.139
CCTCTAAA	-0.161
AGCATCTC	0.0587
CCTGATCA	-0.122
CGTCATCC	0.0455

Sequence	PBM E-score
AAAGGATC	-0.152
CCTGGGAA	0.0187
CCGATTCG	0.232
ACGGTCAA	0.147
CATTACGA	0.137
AACGATAA	-0.0588
ATAACCCG	-0.014
CTGTACGA	-0.00911
AGTGTGAG	0.147
CAAATCCA	-0.0385
CGCCACCG	0.0792
AAGGACTT	-0.318
AGCCTCAT	-0.0807
ATCTCATC	0.0646
CGAACCCA	0.0781
AAACTCTC	-0.145
CATGGTTA	0.215
AGAGCGGA	0.0658
AATCACCT	0.312
AAGGGTCT	-0.277
CTTGGATA	-0.0436
ACCAGTAG	-0.0112
ATTGGCGA	0.073
GTTTAGGA	-0.379
GCGCGACC	0.174

Sequence	PBM E-score
GTCCATGA	0.0204
CAGAAGGA	-0.285
AACCTAAG	-0.184
CAGTTAAA	-0.189
AGCCCTCG	-0.209
TTCTTAAA	-0.216
AACAGATG	-0.0163
CCGTATGC	0.0952
CACTGTCA	0.118
CTCGCCTA	0.098
CAGGAAAA	-0.109
CGCGAGAA	-0.138
CCCGCAAA	0.0295
AAACAAAA	-0.188
TACCTAGA	-0.0215
AACTAGGG	-0.106
ACAAAAAA	-0.13
CGCCTGCA	-0.134
ACGGACTG	-0.029
CGAACTAA	-0.066
AGCCCGCT	-0.163
CGACCATA	0.146
ATACGTCG	0.0102
AAAGACAT	-0.212
TACAAATA	0.065

Sequence	PBM E-score
CGGACCAC	0.114
CATTTGTA	0.0163
AAAGTTAC	0.0113
AGGGGCAT	-0.205
GGTATTAA	0.112
AGACTGAG	-0.0761
GCGATAAC	-0.133
CATGTGAG	0.0613
AAAAACCA	-0.051
GGAAATCC	-0.096
GACGACGA	-0.051
CTACATCA	0.222
TAGTATCA	0.197
GAAAGGAA	-0.0483
AGGTGATG	0.0344
GCACTGTA	0.0123
ATTGGAAC	0.0853
AATGACCT	-0.0434
CCATGGAA	0.114
